Laboratory results from PubChem BioAssay AID1671188 (National Center for Advancing Translational Sciences (NCATS), 2021).
Out of some 100,000 compounds screened, about 250 (0.25%) were called active. The shares of active, inactive and inconclusive entries below differ from those in the screen. Calls come from the whole dose curve; as a rule, active = well fitted inhibition curve with a large enough effect; inconclusive = small, poorly fitted or top-dose-only effect; inactive = flat fitted curve, though single readings scatter. Potencies of inconclusive entries are left out as doubtful fits.

target: Alanine aminotransferase 2 (Homo sapiens) (UniProt Q8TD30); test: Primary qHTS assay for inhibitors of Glutamate pyruvate transaminase 2 (GPT2); conditions: Recombinant GPT2, coupled pyruvate oxidase/HRP Amplex Red fluorescence; series mostly up to 57.7 µM; note: nearly all actives have a fitted effect of over 60% in size
Chain of UniProt Q8TD30 (Q8TD30 whole entry, looked up): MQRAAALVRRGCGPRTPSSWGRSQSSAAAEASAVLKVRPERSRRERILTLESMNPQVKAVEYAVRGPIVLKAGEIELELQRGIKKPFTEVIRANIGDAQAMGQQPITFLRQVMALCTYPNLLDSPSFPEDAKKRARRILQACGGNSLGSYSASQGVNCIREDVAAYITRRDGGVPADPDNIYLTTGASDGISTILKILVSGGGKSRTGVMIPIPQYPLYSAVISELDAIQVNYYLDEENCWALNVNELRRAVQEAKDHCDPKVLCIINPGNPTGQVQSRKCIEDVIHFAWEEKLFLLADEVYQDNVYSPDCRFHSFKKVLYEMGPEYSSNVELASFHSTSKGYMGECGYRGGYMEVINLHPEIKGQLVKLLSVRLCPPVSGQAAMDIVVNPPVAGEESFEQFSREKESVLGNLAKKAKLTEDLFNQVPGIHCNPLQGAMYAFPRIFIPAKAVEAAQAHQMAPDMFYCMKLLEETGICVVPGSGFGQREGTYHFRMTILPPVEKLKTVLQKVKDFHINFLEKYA
In short: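 Inhibition is scored from Amplex Red fluorescence generated when pyruvate oxidase and HRP act on pyruvate released by GPT2. Reactions contain 10ng/uL enzyme, 250uM a-KG and 2mM L-alanine and run 30 min at room temperature.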
Potency is the fitted concentration of half-maximal effect; tags give direction and shape of the fitted curve.

**Q.** How did the Potency turn out when `COc1cccc(CN2C[C@@H]3C[C@H]2C(=O)N(Cc2ccccc2)c2ccccc2O3)n1` was run?
**A.** Its Potency is “inactive”.

**Q.** `O=C(NCCCN1CCCc2ccccc21)C1Cn2cccc2C(=O)N1Cc1cccnc1` (centres undefined) was tested. Which Potency did it give?
**A.** The Potency was inconclusive [inhibitor, full curve, poor fit].

**Q.** Which Potency does the source give for `CC(=O)C1=C(C)N(c2cccc(C(F)(F)F)c2)C(=O)N[C@H]1c1ccc(C#N)nc1` here?
**A.** Its Potency is “inactive”.

**Q.** With `O=[S+]([O-])(NCC1CN(Cc2ccc3[nH]ccc3c2)CC12CN(c1ccccc1)C2)c1ccccc1` (centres undefined) as the compound, how does the Potency read?
**A.** The Potency was inconclusive [inhibitor, single point].

**Q.** Which Potency does the source give for `COc1ccc(-c2c(C(=O)N3CCOCC3)nc3sccn23)cc1` here?
**A.** Its Potency is inconclusive [inhibitor, single point].

**Q.** `Cc1ccc(CSc2nc(N)cc(N3CCN(CCCO)CC3)n2)cc1` was tested. Which Potency did it give?
**A.** The Potency was “inactive”.

**Q.** `COc1ccccc1C(=O)NC[C@@H]1C=C(C)[C@H](CC(=O)NCc2ccccn2)C[C@H]1C(C)C` was tested. Which Potency did it give?
**A.** The Potency was inconclusive [inhibitor, single point].

**Q.** `Cc1cnc(-c2ccccc2)n1C1CCN(S(C)(=O)=O)CC1` was tested. Which Potency did it give?
**A.** Its Potency is inconclusive [inhibitor, single point].

**Q.** `COc1ccccc1-c1cc(C(=O)NCc2cccnc2)nn2cccc12` was tested. Which Potency did it give?
**A.** The Potency was “inactive”.

**Q.** With `COCCn1ccc2c(C3=CCOCC3)nc(-c3cccc(N[S+](C)(=O)[O-])c3)cc21` as the compound, how does the Potency read?
**A.** The Potency was inconclusive [inhibitor, single point].

**Q.** How did the Potency turn out when `COc1ccc(Nc2ccnc(N3CCC(NC(=O)c4cccc(Cl)c4)CC3)n2)cc1` was run?
**A.** Its Potency is inconclusive [inhibitor, single point].

**Q.** How did the Potency turn out when `Cn1cc(CC(=O)N2CCCc3ncc(C(=O)NCCc4ccccc4)cc32)c2ccccc21` was run?
**A.** Its Potency is inconclusive [inhibitor, single point].

**Q.** `COC(=O)CNC(=O)c1nc(-c2ccc(F)cc2)c2cnccn12` was tested. Which Potency did it give?
**A.** Its Potency is inconclusive [inhibitor, single point].

**Q.** With `COc1ccc(-c2cc(C[C@H]3CNCC[C@H]3CC(=O)NCc3ccc4c(c3)OCO4)no2)cc1` as the compound, how does the Potency read?
**A.** The Potency was inconclusive [inhibitor, full curve, poor fit].

**Q.** `O=C(Cn1nnnc1CN1CCOCC1)N1CCN(c2ccc(Cl)cc2)CC1` was tested. Which Potency did it give?
**A.** The Potency was inconclusive [inhibitor, single point].

**Q.** With `COCCNC(=O)c1cccc2c1CCN2C(=O)C1CC1` as the compound, how does the Potency read?
**A.** Its Potency is “inactive”.

**Q.** How did the Potency turn out when `CCOC(=O)C1(Cc2ccccc2F)CCCN(C(=O)c2cnn(CC)c2)C1` (centres undefined) was run?
**A.** The Potency was “inactive”.

**Q.** With `O=C1N2CCCC2CN1C1CCN(Cc2ccc(OC(F)(F)F)cc2)CC1` (centres undefined) as the compound, how does the Potency read?
**A.** The Potency was inconclusive [inhibitor, single point].

**Q.** `O=C(Cc1ccsc1)NC1CCc2nnc(C3CC3)n2CC1` (centres undefined) was tested. Which Potency did it give?
**A.** The Potency was “inactive”.

**Q.** Which Potency does the source give for `COc1ccc(N2CCC(NC(=O)c3ccc(N(C)C)cc3)C2=O)cc1` (centres undefined) here?
**A.** The Potency was inconclusive [inhibitor, single point].

**Q.** For `Cn1c(CN2CCOCC2)nnc1C1CCCN(S(=O)(=O)C2CC2)C1` (centres undefined), which Potency is on record?
**A.** Its Potency is inconclusive [inhibitor, partial curve].

**Q.** `O=C(COc1ccccc1)N1CCC(Cc2nc(-c3ccncc3)n[nH]2)CC1` was tested. Which Potency did it give?
**A.** Its Potency is inconclusive [inhibitor, partial curve, poor fit].

**Q.** For `CCNC(=O)N1CCCC1c1noc(CCC(=O)NCCC(C)C)n1` (centres undefined), which Potency is on record?
**A.** The Potency was inconclusive [inhibitor, single point].

**Q.** Which Potency does the source give for `Cc1ccc(Nc2c(F)cccc2Cl)c(CC(=O)O)c1` here?
**A.** Its Potency is inconclusive [inhibitor, partial curve, poor fit].

**Q.** How did the Potency turn out when `CCc1nc2c(c(-c3ccc(O)cc3)n1)CCN(C(=O)c1cccc(Cl)c1)CC2` was run?
**A.** The Potency was “inactive”.

**Q.** How did the Potency turn out when `CNC(=O)CCn1ncc2cc(OC3CCc4cccc(-c5ccc(F)cc5)c43)ccc21` (centres undefined) was run?
**A.** The Potency was inconclusive [inhibitor, single point].

**Q.** For `Cc1nnc(-c2cc(-c3ccsc3)ccn2)n1Cc1ccncc1`, which Potency is on record?
**A.** The Potency was inconclusive [inhibitor, single point].

**Q.** `O=C(CCc1ccccc1)N1CCC2(CC1)NC(=O)N(c1cccc(F)c1)N2` was tested. Which Potency did it give?
**A.** The Potency was inconclusive [inhibitor, single point].

**Q.** With `Cc1ccc(NC(=O)N2CCC(CCNC(=O)c3ccc(F)cc3)CC2)cc1F` as the compound, how does the Potency read?
**A.** The Potency was “inactive”.

**Q.** `O=C1NC2(CCN(C(=O)c3ccc4c(c3)OCO4)CC2)COc2ccccc21` was tested. Which Potency did it give?
**A.** Its Potency is inconclusive [inhibitor, single point].

**Q.** `O=C(c1ccc(C(F)(F)F)cc1)N1CCn2c(nnc2-c2ccccc2)C1` was tested. Which Potency did it give?
**A.** The Potency was inconclusive [inhibitor, single point].

**Q.** `O=C1NCCCCCN(C(=O)CN2CCCC2=O)[C@H]2CCC[C@@H]12` was tested. Which Potency did it give?
**A.** The Potency was inconclusive [inhibitor, partial curve, poor fit].

**Q.** For `COCc1cn([C@H]2CO[C@H]3[C@@H]2OC[C@@H]3NC(=O)Nc2cccc(C#N)c2)nn1`, which Potency is on record?
**A.** Its Potency is inconclusive [inhibitor, partial curve, poor fit].

**Q.** How did the Potency turn out when `CC(C)c1ccc(CN2CCC3(CC2)OCCN(c2ccc(F)cc2)C3=O)cc1` was run?
**A.** The Potency was “inactive”.

**Q.** For `O=C(CCc1cc2n(n1)CCCNC2)Nc1ccccc1CCc1ccccn1`, which Potency is on record?
**A.** Its Potency is inconclusive [inhibitor, single point].

**Q.** How did the Potency turn out when `CC(C)c1cccc(NC(=O)c2ccc3c(c2)N(C)C2CCCCN2C3=O)c1` (centres undefined) was run?
**A.** Its Potency is “inactive”.

**Q.** Which Potency does the source give for `COCCCNC(=O)c1ccc(Cn2ccn3nc4c(c3c2=O)CCCC4)cc1` here?
**A.** Its Potency is “inactive”.

**Q.** `O=C([C@H]1C[C@H](Oc2ccccc2)CN1C(=O)CCCc1ccccc1)N1CCOCC1` was tested. Which Potency did it give?
**A.** Its Potency is inconclusive [inhibitor, full curve].

**Q.** `Cn1c(=O)oc2ccc(C(=O)N3CCn4nc(C(O)CO)cc4C3)cc21` (centres undefined) was tested. Which Potency did it give?
**A.** Its Potency is inconclusive [inhibitor, single point].

**Q.** With `COc1ccc(C(=O)NC[C@H]2Cn3c(-c4ccc(F)cc4)cnc3CO2)cc1` as the compound, how does the Potency read?
**A.** The Potency was “inactive”.

**Q.** How did the Potency turn out when `CC1=C(CC(=O)O)c2cc(F)ccc2/C1=C\c1ccc(S(C)=O)cc1` (centres undefined) was run?
**A.** The Potency was inconclusive [inhibitor, single point].

**Q.** For `CCCCSCc1cc(C(=O)N2CC(C)(C)C(C)(O)C2)oc1C` (centres undefined), which Potency is on record?
**A.** The Potency was inconclusive [inhibitor, single point].

**Q.** `CCCc1cc(=O)[nH]c(=S)[nH]1` was tested. Which Potency did it give?
**A.** The Potency was inconclusive [inhibitor, single point].

**Q.** With `O=S(=O)(Cc1ccccc1F)N1CCCC(Cn2c(C3CC3)nc3cccnc32)C1` (centres undefined) as the compound, how does the Potency read?
**A.** Its Potency is inconclusive [inhibitor, single point].

**Q.** For `CSc1ncc(CN2CCOC(Cc3cccc(C(F)(F)F)c3)C2)cn1` (centres undefined), which Potency is on record?
**A.** Its Potency is “inactive”.

**Q.** Which Potency does the source give for `COc1ccc(Cl)cc1C(=O)NC1CCCN(c2cc(-c3ccc(F)cc3)[nH]n2)C1` (centres undefined) here?
**A.** Its Potency is inconclusive [inhibitor, partial curve, poor fit].

**Q.** Which Potency does the source give for `Cc1cc(C(=O)N2CCOC[C@H](Oc3ccc(S(C)(=O)=O)cc3)C2)n(C)n1` here?
**A.** Its Potency is inconclusive [inhibitor, single point].

**Q.** Which Potency does the source give for `O=C(NC1CCOCC1)c1cccc(S(=O)(=O)N2CCC[C@H]2CO)c1` here?
**A.** Its Potency is inconclusive [inhibitor, partial curve, poor fit].

**Q.** Which Potency does the source give for `CN[C@@H]1[C@H](O)[C@H](CO)O[C@@H]1CNC1CCCCC1` here?
**A.** The Potency was “inactive”.

**Q.** With `CC(=O)O[C@H]1CC2C(COC(=O)CC(C)C)=CO[C@@H](OC(=O)CC(C)C)C2[C@]12CO2` (some centres undefined) as the compound, how does the Potency read?
**A.** The Potency was inconclusive [inhibitor, single point].

**Q.** `O=C(Nc1ccccc1)N[C@H]1[C@H](O)[C@@H](Sc2ccccc2)[C@@H]2OC[C@H]1O2` was tested. Which Potency did it give?
**A.** The Potency was inconclusive [inhibitor, single point].

**Q.** For `CCOC(=O)Cn1nc2n(c1=O)CCN(Cc1cc(C)ccc1C)C2=O`, which Potency is on record?
**A.** The Potency was inconclusive [inhibitor, partial curve, poor fit].

**Q.** For `O=C(NCc1csc(-c2cnccn2)n1)C(c1cccnc1)N1CCOCC1` (centres undefined), which Potency is on record?
**A.** Its Potency is inconclusive [inhibitor, partial curve].

**Q.** Which Potency does the source give for `C=CCNC(=O)c1coc(COc2ccc3c(c2)C(c2cccc(C)c2)N(C(=O)C2CC2)CC3)n1` (centres undefined) here?
**A.** Its Potency is “inactive”.

**Q.** Which Potency does the source give for `O=[S+]1([O-])NC2(CCN(Cc3ccc(F)cc3)C2)COc2ncccc21` (centres undefined) here?
**A.** The Potency was inconclusive [inhibitor, single point].

**Q.** Which Potency does the source give for `COC(=O)c1c(NC(C)=O)c2cc(NC(C)CC(C)(C)O)cnc2n1CCc1ccc(OC)cc1` (centres undefined) here?
**A.** Its Potency is inconclusive [inhibitor, partial curve, poor fit].

**Q.** With `COc1ccc(Cl)cc1C(=O)NC1CCN(c2cc(-c3ccc(F)cc3)[nH]n2)C1` (centres undefined) as the compound, how does the Potency read?
**A.** The Potency was inconclusive [inhibitor, partial curve, poor fit].

**Q.** With `O=C(c1cc(CN2CCC(Cc3ccccc3)CC2)on1)N1CCN2CCCC2C1` (centres undefined) as the compound, how does the Potency read?
**A.** Its Potency is inconclusive [inhibitor, single point].

**Q.** How did the Potency turn out when `O=C(COc1ccc(Cl)c(Cl)c1)N1CCC2(CCCNC2=O)C1` (centres undefined) was run?
**A.** The Potency was inconclusive [inhibitor, single point].

**Q.** How did the Potency turn out when `O=C(CN1CCCc2nc(-c3ccncc3)ncc2C1=O)NCCCN1CCOCC1` was run?
**A.** Its Potency is “inactive”.

**Q.** With `CN(Cc1ccccc1)C1(C(=O)NC2CCC(O)CC2)Cc2ccccc2C1` (centres undefined) as the compound, how does the Potency read?
**A.** The Potency was inconclusive [inhibitor, single point].

**Q.** For `CC1CCN(CC2CCCCCN2C(=O)c2ccco2)CC1` (centres undefined), which Potency is on record?
**A.** The Potency was inconclusive [inhibitor, single point].

**Q.** `O=C(NC1CCN(c2cc(-c3cccs3)[nH]n2)C1)c1cccc(Br)c1` (centres undefined) was tested. Which Potency did it give?
**A.** Its Potency is inconclusive [inhibitor, single point].

**Q.** `O=C(NC1CCCCCC1)C1CN(c2ccnc3ccnn23)C1` was tested. Which Potency did it give?
**A.** The Potency was inconclusive [inhibitor, single point].
